# The supplement of paper PMC11417369
# ± gives the standard deviation of the averaged measurements. The list shows a part of the results.
# Tested on: PfAP2-EXP AP2 domain (GST-tagged)
# Assay: gcPBM binding intensity (ln(normalized median fluorescence intensity)); higher = stronger DNA binding
# In short: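 The highest Masliner-normalised natural-log median intensity across replicate spots of either probe orientation is reported as binding intensity. GST-tagged P. falciparum DNA-binding domains expressed in E. coli were applied for 1 h to an Agilent 4 × 180k array of primer-extended double-stranded 36-bp intergenic genomic probes plus negative controls, and bound protein was detected with Alexa488 anti-GST antibody and scanned at 488 nm.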
row,Sequence,gcPBM binding intensity (ln)
1,CACTTAAAAAGCTAACGTACAAATACACATATATAA [XGTACX_site1851],8.47 ± 0.52
2,ATATTAAATATTATCACACACATAATTATTTCCATA [CACACA_site2334],8.48 ± 0.36
3,ATATAATAATATGGTTGTACATAAATAACACATGAA [XGTACX_site6592],8.87 ± 0.43
4,CAAAATATTTTTTCCTGTACATAATTCCTATTTCAC [XGTACX_site3590],8.73 ± 0.39
5,ATATATATATATATATGTACATACATATTGTTTGGT [XGTACX_site2284],10.3 ± 0.76
6,ATGATTATACAAAATATACACACGTGTAGACAAATA [CACACA_site1175],8.87 ± 0.37
7,TAATAATAGAAACACACACACATAGACATATATATA [CACACA_site1307],8.88 ± 0.51
8,AAGAACCATATTTAAACACACATACCTATATAAATA [CACACA_site7553],8.51 ± 0.47
9,ATAATTATATACCATGCACACAAATATTCATACAGG [CACACA_site9343],8.59 ± 0.22
10,AAAAAATACATACATACACACATATTTATTTATATA [CACACA_site6554],8.26 ± 0.35
11,TATATACACATTTTTATACACACTTGTTTTATAAAA [CACACA_site8139],8.55 ± 0.4
12,TTATGCATATATTATGCATGTAGTTTTAAATCACAT [TGCATGCA_site104],8.71 ± 0.23
13,GCACAAATATATATATATATATATATATATATATAT [GTGCAC_negctrl_site661],9.91 ± 0.52
14,TGCCCTAACCATACTACACACACTGCTCAAAATAGT [CACACA_site2219],8.84 ± 0.41
15,TATATATATTTATAATGTACACATATATGTAAATAT [XGTACX_site3695],8.51 ± 0.2
16,TACAATATAAAATACACACACACAAACATATATTTA [CACACA_site5941],8.73 ± 0.5
17,TAAATATATTTATAAGCACACACTAATAAACCCACA [CACACA_site390],9.04 ± 0.39
18,AATTTTTATACGGATACACACAAAAAAAAATAAAAA [CACACA_site897],8.64 ± 0.47
19,AAAATATATTATTATTGTACATATATTTTCATTTAC [XGTACX_site4593],8.64 ± 0.29
20,TTTATTTTGTTTATGGTGCATTTTATGTAAATATAT,8.935 ± 0.007
21,TAATGACAATAAAAATAAATAAATAAAAAAAAAAAA [TGCATGCA_negctrl_site321],8.19 ± 0.4
22,AATAAATAAATAAATAAATAAATATATATATATATA [GTGCAC_negctrl_site330],10 ± 0.31

row,Sequence,gcPBM binding intensity (ln)
1,ATATATTATCTGTACACACACATATAAGGGATTATA [CACACA_site4180],8.76 ± 0.4
2,TGAAATAAAATTATTTGTACATATCGGAAAAAAAAA [XGTACX_site7131],8.53 ± 0.38
3,TTTTTTGAAAATAAATGTACGAATTTTATATTTAAA [XGTACX_site2768],8.14 ± 0.3
4,AAGAAAATAAAAAGGTAAATATGTATAAATAAATAA [TGCATGCA_negctrl_site88],8.65 ± 0.39
5,AAGGCATATATAATTTGTACATATTAAGAATTAGAT [XGTACX_site8660],8.66 ± 0.39
6,GATACAGATGGACACACACACATACATAAATACATA [CACACA_site5833],8.79 ± 0.47
7,AAATTACCCATCCATACACACATATTTTTTTTAATT [CACACA_site2189],8.63 ± 0.38
8,CAAAAATAATAGAATACATGCAAAAATAAATGTATA [TGCATGCA_site196],9 ± 0.071
9,TTTTTTTTTAAAACATAATAAAAAATAAAACAACCT [GTGCAC_negctrl_site92],8.77 ± 0.28
10,AAAAATAAAGGGTGTGCACACAAAAATATATATATA [CACACA_site1727],9.805 ± 0.078
11,ATAATATATTTAATCATACACACATTTATGTACCTA [CACACA_site1719],8.5 ± 0.47
12,ATATATATATATATATGTACATATATATTGTTGATC [XGTACX_site8893],10.1 ± 0.26
13,ATTTAATTCGTACATACACACGCACATATATATATA [CACACA_site8415],9.89 ± 0.24
14,ACATATTATTCAAGTGCACACTTTATATTTATGATT [CACACA_site3295],8.83 ± 0.26
15,AAAAAAAAACAGAAAACACACAAATTATCTTAGAAT [CACACA_site309],8.54 ± 0.59
16,TACAATAATGATTGTTGTACATTATTGATATTTAAA [XGTACX_site2940],8.26 ± 0.35
17,TTTAATTTTTAATCAGTGCAATATTATATAATATAT,8.445 ± 0.021
18,TCATTTTAATTAAAAGTGCAAAAAATAATATAACTA [GTGCAC_site9968],8.94 ± 0.17
19,ATTAATTCGTTTTGTACACACATAATGAATAATTTA [CACACA_site2235],8.44 ± 0.28
20,TATATGAAATATTATGCACACAATATATAATATGAT [CACACA_site936],8.61 ± 0.32
21,AATAATTCATCATATGCACACACAATACCAAAATGT [CACACA_site7945],8.81 ± 0.42
22,TTCTTTTTTCGACACACACACACAAGAAGATATATA [CACACA_site7456],8.82 ± 0.39
